About 14,000 (4.5%) of roughly 310,000 compounds showed an effect of 50% or more. The effect is printed as a negative number. Some of the results follow.
Target: human ether-à-go-go-related gene (hERG) potassium channel (human, UniProt Q12809)
Experiment: primary screen, population patch clamp on CHO cells stably expressing hERG
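Note: peak tail current of the secondary pulse compared with the same well before compound.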

human ether-à-go-go-related gene (hERG) potassium channel, sequence (Q12809 whole entry, looked up): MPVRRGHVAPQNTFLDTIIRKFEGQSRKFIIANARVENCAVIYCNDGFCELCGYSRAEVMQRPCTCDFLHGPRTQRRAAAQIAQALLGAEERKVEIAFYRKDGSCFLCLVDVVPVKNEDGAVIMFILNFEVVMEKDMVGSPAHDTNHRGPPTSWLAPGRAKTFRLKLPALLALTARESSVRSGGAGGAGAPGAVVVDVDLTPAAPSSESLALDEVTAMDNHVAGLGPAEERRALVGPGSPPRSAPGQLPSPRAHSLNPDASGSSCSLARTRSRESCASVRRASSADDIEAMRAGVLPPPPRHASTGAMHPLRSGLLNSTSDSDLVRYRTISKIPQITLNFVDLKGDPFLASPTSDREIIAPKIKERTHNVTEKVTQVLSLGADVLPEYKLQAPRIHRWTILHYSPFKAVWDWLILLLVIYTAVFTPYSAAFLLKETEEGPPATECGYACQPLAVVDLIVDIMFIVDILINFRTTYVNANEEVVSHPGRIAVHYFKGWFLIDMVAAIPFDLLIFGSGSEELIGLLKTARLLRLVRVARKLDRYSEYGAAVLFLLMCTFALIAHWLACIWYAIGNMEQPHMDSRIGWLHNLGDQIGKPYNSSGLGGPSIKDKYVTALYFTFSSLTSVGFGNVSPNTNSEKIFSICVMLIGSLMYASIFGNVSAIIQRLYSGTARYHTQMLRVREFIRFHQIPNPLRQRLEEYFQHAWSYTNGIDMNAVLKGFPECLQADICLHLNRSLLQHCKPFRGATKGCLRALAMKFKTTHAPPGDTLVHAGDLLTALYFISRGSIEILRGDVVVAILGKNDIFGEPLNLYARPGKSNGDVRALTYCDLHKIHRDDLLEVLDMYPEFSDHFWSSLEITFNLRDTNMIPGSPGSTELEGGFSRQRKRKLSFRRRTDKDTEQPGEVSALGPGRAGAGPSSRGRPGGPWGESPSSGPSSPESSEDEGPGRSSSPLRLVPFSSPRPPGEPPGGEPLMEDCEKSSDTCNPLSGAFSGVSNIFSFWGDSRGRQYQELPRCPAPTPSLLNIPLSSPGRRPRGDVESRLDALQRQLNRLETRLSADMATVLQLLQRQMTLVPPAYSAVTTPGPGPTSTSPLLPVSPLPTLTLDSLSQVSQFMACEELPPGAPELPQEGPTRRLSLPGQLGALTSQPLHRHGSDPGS

| Compound | hERG current change (%, negative = inhibition) at 10uM [%] |
| --- | --- |
| CCO[C@H]1OC(C(=O)N2CCN(Cc3ccccc3)CC2)=C[C@@H](c2ccccc2)[C@@H]1CCCO | -9.53 |
| C/C(=N\NC(=O)C1(C)NC(C)(C)Cc2ccccc21)c1ccccc1 (stereo not drawn) | 11.8 |
| O=C(CCCN1C(=O)/C(=C/c2ccccc2Cl)SC1=S)N1CCCC1 | -11.2 |
| COc1ccc(OCC(=O)N/N=C/C(C)=C/c2ccco2)c(Br)c1 | 9.89 |
| O=C(O)c1cccc(Nc2nc3ccccc3nc2NS(=O)(=O)c2cccs2)c1 | 17.5 |
| Cc1nc2nc(COc3ccccc3)nn2c(C)c1Cl | -44.4 |
| COc1ccc(S(=O)(=O)Nc2ccccc2C(=O)N2CCCC2)cc1C | -5.4 |
| CC(C)(C)NC(=S)Nc1ccc(Nc2ccccc2)cc1 | 11.2 |
| O=c1c2ccccc2nc(SCc2nnc(-c3ccccc3Br)o2)n1Cc1ccco1 | -3.21 |
| Cc1ccc(NC(=O)c2nc[nH]c2C(=O)N2CCc3ccccc3C2)cc1 | 18.8 |
| COc1ccc(C(=O)CSc2nc3[nH]ncc3c(=O)[nH]2)cc1 | -10.4 |
| COc1ccc(C(C(=O)NC2CCCCC2)N(Cc2cccnc2)C(=O)c2snc(C(N)=O)c2N)cc1 (stereo not drawn) | -11.8 |
| C=CCn1c(NC(=O)CC)c(C(=O)OCC)sc1=S | -4.95 |
| C/C(=N\NC(=O)c1ccccc1C)c1cccnc1 | 28.5 |
| O=[N+]([O-])c1cc(-c2nc(-c3ccncc3)no2)cc([N+](=O)[O-])c1 | -38.5 |
| O=C(NCC1CCCO1)c1nc(Cn2ccc([N+](=O)[O-])n2)no1 (stereo not drawn) | 8.69 |
| CCOc1ccc(CCNC(=O)c2ccc(=O)[nH]c2)cc1OCC | 15.4 |
| O=C1CCCC2=C1C(c1ccccn1)Nc1ccc(C(=O)c3ccccc3)cc1N2 (stereo not drawn) | 6.55 |
| CSc1ncc(CN2CCCCC2C(=O)Nc2ccc(Oc3ccccc3)nc2)cn1 (stereo not drawn) | -11 |
| CC(=O)c1cccc(CN2CCC(n3nccc3NC(=O)c3ccc4c(c3)OCO4)CC2)c1 | -7.62 |
| CCOC(=O)c1ccc(NC(=O)c2nc[nH]c2C(=O)N2CCC(C)CC2)cc1 | 2.94 |
| CCOC(=O)C(C#N)(Cc1cc(OC)cc(OC)c1)Cc1cc(OC)cc(OC)c1 | -1.05 |

| Compound | hERG current change (%, negative = inhibition) at 10uM [%] |
| --- | --- |
| COc1ccc(-c2nnn(CC(=O)N(Cc3ccco3)C(C(=O)NCC3CCCO3)c3ccco3)n2)cc1 (stereo not drawn) | -10.4 |
| O=C(N/N=C\c1cc([N+](=O)[O-])ccc1N1CCCC1)c1ccccn1 | -3.3 |
| COc1ccccc1N(C)C(=O)c1cc(S(=O)(=O)N2CCCC2)cn1C | -3.55 |
| CC(=O)Nc1ccc(S(=O)(=O)NCC2CCCO2)cc1 (stereo not drawn) | 18.5 |
| Cc1nc(CCNS(=O)(=O)c2cccnc2)cs1 | 21.6 |
| CCOc1cc(/C=C/C(=O)c2ccc(O)cc2)ccc1OCC(=O)N(C)C | -24.6 |
| N#Cc1c2c(c(-n3cnc4ccccc43)n3c1nc1ccccc13)CCC2 | 0.147 |
| CCCCSc1nc2c(cc1C#N)CCC2 | -1.7 |
| Cc1c(NC(=S)SCc2ccccc2)c(=O)n(-c2ccccc2)n1C | 26.4 |
| O=C(c1ccc(S(=O)(=O)N2CCC(c3nc4ccccc4[nH]3)CC2)cc1)N1CCOCC1 | -3.35 |
| CC(C)OCC1CC(CC(=O)NC(=S)Nc2cccc([N+](=O)[O-])c2)C(=O)O1 (stereo not drawn) | -36.8 |
| COc1cccc(NC(=O)N2CCC(NC(=O)C(Cc3cccc(C)c3)NC(C)=O)CC2)c1 (stereo not drawn) | -1.84 |
| O=[N+]([O-])c1ccc(Cl)c(/C=N/n2c(C3CCCCC3)n[nH]c2=S)c1 | 2.79 |
| CCC(=O)Oc1c(C(=O)CC)cc2c(C)cc(=O)oc2c1C | 0.95 |
| Nc1ccccc1-c1nnn(CC(=O)N2CCCc3ccccc32)n1 | 9.62 |
| CCOCC(=O)N1CCN(Cc2ccc3c(c2)OCO3)CC1 | 4.23 |
| CCOC(=O)C1CCCN(C(=O)C2CCC(CNS(=O)(=O)c3ccc(NC(C)=O)cc3)CC2)C1 (stereo not drawn) | -5.84 |
| O=C(NCc1ccccn1)c1cc(-c2ccccc2Cl)on1 | -13 |
| Cc1cc(NC(=O)C(C)SCC(=O)Nc2cc(C(F)(F)F)ccc2N2CCOCC2)no1 (stereo not drawn) | -40.3 |
| COc1ccc(NC(=O)CSc2c(C)n[nH]c2C)cc1 | -7.52 |
| O=c1ccn(-c2cccc(C(F)(F)F)c2)nc1-c1ccn(-c2ccccc2)n1 | -14.2 |
| CC(C(=O)NC(C)(C)C)N(C(=O)CS(=O)CC(=O)Nc1ccc(F)cc1)C1CCCC1 (stereo not drawn) | 9.18 |

| Compound | hERG current change (%, negative = inhibition) at 10uM [%] |
| --- | --- |
| COc1ccc([C@H]2/C=C\CN(C(=O)C3CCCC3)[C@@H](C)C(=O)N2Cc2ccc(F)cc2)cc1 | -36.6 |
| CCCCC(=O)Nc1nnc(-c2ccco2)o1 | -0.241 |
| COc1cc(NC(=O)C2CC(c3c(F)cccc3Cl)=NO2)c(OC)cc1Cl (stereo not drawn) | -9.58 |
| N#CCC(=O)Nc1ccc(C(=O)OCC(=O)Nc2ccccc2-c2ccccc2)cc1 | 9.2 |
| CCNC(=O)N1CCCC(C(=O)c2ccc(OC)c(OC)c2)C1 (stereo not drawn) | 20.8 |
| COc1ccc(S(=O)(=O)N2CCC(N3CCN(c4ccccc4)CC3)CC2)cc1 | -8.52 |
| CCOC(=O)CN1CCS(=O)(=O)CC1 | 13.5 |
| COc1ccc(NC(=O)C2=CC(c3ccco3)=NS(=O)(=O)N2C)cc1OC | 1.61 |
| Cc1nn(C(C)C(=O)NCC2CCCO2)c(C)c1[N+](=O)[O-] (stereo not drawn) | 8.7 |
| CN(C(=O)CN1C(=O)S/C(=C\c2ccccc2F)C1=O)C1CCS(=O)(=O)C1 (stereo not drawn) | 6.16 |
| CS(=O)(=O)Nc1ccccc1C(=O)Nc1cccc(Cl)c1 | -14.9 |
| Nc1ncn(C23CC4CC(CC(C4)C2)C3)n1 | -3.31 |
| Cc1ccccc1N(CC(=O)NC1CCCC1)C(=O)c1csnn1 | 27.7 |
| O=C(O)/C=C/C(=O)Nc1ccc(C(=O)c2ccccc2)cc1 | 3.18 |
| O=S(=O)(Nc1ccccc1N1CCOCC1)c1ccc(Cl)s1 | -4.96 |
| Nc1nc(Cl)cc(N2CCC(c3cc(-c4ccc(Cl)cc4Cl)n[nH]3)CC2)n1 | 24.3 |
| COc1ccc(NC(=O)C2CCOC2=O)cc1 (stereo not drawn) | 1.57 |
| CCN(C(=O)CCS(=O)(=O)c1cc2c(cc1Cl)NC(=O)CO2)c1ccccc1 | -21.8 |
| CC1(C)CC(NC(=O)c2cccc(S(=O)(=O)N(Cc3ccccc3)c3ccccc3)c2)CC(C)(C)N1 | -45.3 |
| COC(=O)CSc1nc(N)c2c3c(sc2n1)C(c1ccccc1)SC(c1ccccc1)C3 (stereo not drawn) | 29.1 |
| COc1cc(/C=N/NC(=O)CSc2cc(C)c(Br)cc2C)ccc1O | -14.4 |
| CCCC/C(O)=C1\C(=O)CC(C)(C)CC1=Nc1ccc(N)cc1 | -11.4 |

| Compound | hERG current change (%, negative = inhibition) at 10uM [%] |
| --- | --- |
| CCCCC(CC)C(=O)N1CCN(C(=O)c2ccco2)CC1 (stereo not drawn) | -8.89 |
| Cc1cc(C(=O)COC(=O)c2ccc(F)cc2F)c(C)n1C1CC1 | -0.281 |
| O=C(COC(=O)CCc1ccc(S(=O)(=O)N2CCOCC2)cc1)Nc1cccc(Cl)c1 | -30.3 |
| O=C(O)C(=O)O.OCCN1CCN(C(=S)Nc2cccc(C(F)(F)F)c2)CC1 | 3.49 |
| Cc1cc(C(=O)N/N=C/c2ccccc2)c(C)o1 | 10.7 |
| CC1CCC/C(=N\NS(=O)(=O)c2ccccc2)C1 (stereo not drawn) | 11.6 |
| Cc1c(C(=O)OCC(=O)Nc2ccccc2OC(F)F)cccc1[N+](=O)[O-] | -6.61 |
| Cc1n[nH]c(C)c1CCCCOc1ccc([N+](=O)[O-])cc1 | -16.4 |
| Cc1nc2cc(Cl)c(Cl)cc2n1-c1ccccn1 | -48.8 |
| COc1ccccc1-c1nnc(Sc2nc([N+](=O)[O-])nn2C)o1 | -6.64 |
| O=C(COC(=O)c1ccc(CSc2ccc(Cl)cc2)cc1)Nc1ccccc1 | 18.8 |
| O=C(NCCCn1ccnc1)/C(=C/c1cccs1)NC(=O)c1ccco1 | -50.8 |
| CCOC(=O)C1(Cc2cccc(OC)c2)CCN(C/C=C/c2ccccc2)CC1 | -75.9 |
| Cc1ccccc1N(C(=O)Cc1cccs1)C(C(=O)NCC1CCCO1)c1cccnc1 (stereo not drawn) | -16.3 |
| CN(C)Cc1ccc(CNC(=O)COc2ccc3ccccc3c2)cc1 | 2.62 |
| Cc1cccc(C)c1OCc1nnc(SCC(=O)Nc2nccs2)n1-c1ccccc1 | -1.92 |
| Cc1ccccc1NC(=O)CC1SCCNC1=O (stereo not drawn) | 7.45 |
| Cc1cc(N)c2ccccc2n1 | 7.4 |
| COc1ccc(CNC(=O)COC(=O)/C=C/c2cccs2)cc1 | 5.58 |
| CSc1ccccc1C(=O)NC1CCCc2ccccc21 (stereo not drawn) | -7.14 |
| NS(=O)(=O)c1cccc(NC(=O)Nc2ccccc2)c1 | 0.0111 |

Source: article PMC4336329 (PLoS ONE, 2015)
